# Data: the BET-seq Pho4 binding data (Le et al. 2018)
# This is one part of the list. The energies were worked out here from pooled read counts, against the library average; single values are noisy.
# Biological target: T1, Pho4 (S. cerevisiae) (UniProt P07270)
# T1 sequence: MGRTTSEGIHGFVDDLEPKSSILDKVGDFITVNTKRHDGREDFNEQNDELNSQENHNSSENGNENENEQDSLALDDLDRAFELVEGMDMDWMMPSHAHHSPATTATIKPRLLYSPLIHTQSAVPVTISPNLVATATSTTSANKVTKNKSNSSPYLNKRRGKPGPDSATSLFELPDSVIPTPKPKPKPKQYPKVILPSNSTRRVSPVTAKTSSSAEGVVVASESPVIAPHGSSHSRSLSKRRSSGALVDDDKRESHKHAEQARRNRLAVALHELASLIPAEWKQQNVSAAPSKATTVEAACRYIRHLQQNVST
# Assay: relative binding free energy (BET-seq); higher = weaker binding
# Conditions: reference: library average
row,Sequence,relative binding free energy
1,TGTGGCACGTGATCTT,-0.01 kcal/mol
2,TTGGGCACGTGCCTGT,-0.19 kcal/mol
3,GATGTCACGTGGCGTT,0.21 kcal/mol
4,GTTGACACGTGGGGAC,-0.07 kcal/mol
5,GAGATCACGTGTGATG,0.29 kcal/mol
6,GATTTCACGTGTGGGA,0.3 kcal/mol
7,TAAAACACGTGGTGTA,0.02 kcal/mol
8,TGGGCCACGTGGAGAG,-0.07 kcal/mol
9,TAAGACACGTGAGGTT,0.41 kcal/mol
10,TTGACCACGTGTTTTG,-0.08 kcal/mol
11,ACTAGCACGTGGTGTG,-0.08 kcal/mol
12,CGGTGCACGTGTAGGT,-0.14 kcal/mol
13,ATAATCACGTGAGGCT,0.25 kcal/mol
14,AGGGGCACGTGTGCTA,-0.12 kcal/mol
15,CGAGACACGTGAAGTG,0.32 kcal/mol
16,ACGTGCACGTGTGGTG,-0.01 kcal/mol
17,AGTTTCACGTGGAGCC,0.39 kcal/mol
18,TAGCGCACGTGGGGCT,-0.36 kcal/mol
19,TTATCCACGTGGTTTT,0.09 kcal/mol
20,GCAGTCACGTGCGTGG,0.02 kcal/mol
21,AGTGTCACGTGGTACT,-0.14 kcal/mol
22,AAGAGCACGTGGTTGT,-0.21 kcal/mol
23,TTTTTCACGTGAGCTT,0.31 kcal/mol
24,CTGGTCACGTGTCTGT,0.2 kcal/mol
25,AATCTCACGTGATTTG,0.47 kcal/mol
26,GTTTGCACGTGGCATG,0.07 kcal/mol

row,Sequence,relative binding free energy
1,TATAACACGTGGGGCA,0.03 kcal/mol
2,ATTAACACGTGTTAAG,-0.01 kcal/mol
3,TTAGACACGTGTGGGC,0.15 kcal/mol
4,CATTGCACGTGGCTGG,-0.01 kcal/mol
5,GGGGCCACGTGTCGGC,0.09 kcal/mol
6,TGGTACACGTGAGTAT,0.35 kcal/mol
7,GGGGACACGTGCTTTG,0.04 kcal/mol
8,AGGTGCACGTGGAGCT,-0.07 kcal/mol
9,GTAATCACGTGGTAGG,0.23 kcal/mol
10,GGCTACACGTGTTAGG,0.09 kcal/mol
11,ACTTTCACGTGATAGG,0.28 kcal/mol
12,TATATCACGTGGGTTC,0.09 kcal/mol
13,GGCGTCACGTGGGGGG,-0.01 kcal/mol
14,GAAGGCACGTGTGGGC,-0.14 kcal/mol
15,AAATTCACGTGTTGGT,0.27 kcal/mol
16,TGAGGCACGTGTGGTC,-0.03 kcal/mol
17,GGGAGCACGTGATTGG,0.15 kcal/mol
18,GGAAACACGTGATGGT,0.27 kcal/mol
19,TTGAACACGTGGTGGG,0 kcal/mol
20,AGTTTCACGTGATTAG,0.18 kcal/mol
21,AGTTACACGTGCTTTG,0.14 kcal/mol
22,TCTCTCACGTGTTAGT,0.34 kcal/mol
23,TTTGGCACGTGTGTGG,-0.02 kcal/mol
24,TAGTACACGTGTGGCA,0.07 kcal/mol
25,AGAGTCACGTGTATCG,0.27 kcal/mol
26,ATTGTCACGTGGGTTA,-0.02 kcal/mol

row,Sequence,relative binding free energy
1,TCGTTCACGTGAGGTA,0.44 kcal/mol
2,GGTTACACGTGTGGTG,0.25 kcal/mol
3,TGTGTCACGTGTCACG,0.11 kcal/mol
4,TGGGTCACGTGCGTTA,-0.07 kcal/mol
5,TGTTTCACGTGGCCTT,0.08 kcal/mol
6,CGGGGCACGTGGTGAC,-0.25 kcal/mol
7,AGTCTCACGTGCTTGG,0.27 kcal/mol
8,ATCTACACGTGTGGTT,0.14 kcal/mol
9,GGGGGCACGTGCGTTA,-0.18 kcal/mol
10,TGTATCACGTGCTTTT,-0.07 kcal/mol
11,AGTTTCACGTGTTATT,0.31 kcal/mol
12,TGTGACACGTGAACGT,0.2 kcal/mol
13,TAGGGCACGTGGCATT,-0.1 kcal/mol
14,TTGCGCACGTGTTGGG,-0.04 kcal/mol
15,TAGTTCACGTGCCAGG,0.24 kcal/mol
16,TGATACACGTGAGGGC,0.43 kcal/mol
17,ATGTGCACGTGAGCTG,-0.1 kcal/mol
18,TGGGCCACGTGAGCGG,-0.01 kcal/mol
19,TTTTACACGTGGAAGG,0.2 kcal/mol
20,GAGGTCACGTGGTACT,0.19 kcal/mol
21,TCTGGCACGTGTATGA,-0.06 kcal/mol
22,GTTGGCACGTGGAGGT,-0.03 kcal/mol
23,AAGGTCACGTGGGGTA,-0.1 kcal/mol
24,AGGGTCACGTGGTCTT,0.02 kcal/mol
25,TTGTCCACGTGTAGTT,0.16 kcal/mol
26,TTATTCACGTGTTCTG,0.27 kcal/mol

row,Sequence,relative binding free energy
1,TTGAACACGTGATGAG,0.09 kcal/mol
2,GGTCTCACGTGTCGTT,0.25 kcal/mol
3,GGGGACACGTGCAGCG,-0.01 kcal/mol
4,GCATGCACGTGCGGTG,-0.1 kcal/mol
5,TAGGGCACGTGGAAAT,0.02 kcal/mol
6,AGATTCACGTGATGGT,0.35 kcal/mol
7,AGGGTCACGTGAAGGA,0.34 kcal/mol
8,TTAAACACGTGGGGCT,-0.12 kcal/mol
9,AGTGTCACGTGTAATG,0.14 kcal/mol
10,TGTCTCACGTGGGGTT,0.18 kcal/mol
11,CTTTTCACGTGGTTGT,0.23 kcal/mol
12,TTTTCCACGTGGGAGA,-0.04 kcal/mol
13,GGGCTCACGTGATGTT,0.29 kcal/mol
14,GTGTACACGTGTTTAG,0.15 kcal/mol
15,CATGACACGTGTTAGT,-0.01 kcal/mol
16,GCGGACACGTGGGATG,-0.04 kcal/mol
17,CTTAACACGTGTGGTT,-0.03 kcal/mol
18,GGTGGCACGTGGAACG,0.12 kcal/mol
19,CTGTTCACGTGTTGAA,0.2 kcal/mol
20,GTAGACACGTGAGTAG,0.1 kcal/mol
21,ATAAGCACGTGAAGGA,0.25 kcal/mol
22,AAGTGCACGTGCGAGG,0.01 kcal/mol
23,TGATTCACGTGATTTT,0.3 kcal/mol
24,TCTTTCACGTGGGGCA,0.16 kcal/mol
25,TGTATCACGTGTAGGA,0.15 kcal/mol
26,TACGGCACGTGTAAGT,0.01 kcal/mol

row,Sequence,relative binding free energy
1,AGTGGCACGTGAATTG,0.17 kcal/mol
2,TTAGGCACGTGGCCAG,-0.14 kcal/mol
3,ATAAGCACGTGTGTTT,-0.12 kcal/mol
4,GGTTCCACGTGTTGAG,0.15 kcal/mol
5,GGCTCCACGTGGTGGT,0.04 kcal/mol
6,GGCGTCACGTGCTGGT,0.02 kcal/mol
7,AGGGCCACGTGGAATG,-0.1 kcal/mol
8,GTTAGCACGTGGGCGA,0 kcal/mol
9,GTTAGCACGTGCTTTG,-0.06 kcal/mol
10,TTTAGCACGTGTTTTA,0.07 kcal/mol
11,GGGAACACGTGCGGGT,0.02 kcal/mol
12,TTTGTCACGTGGTGGC,0.26 kcal/mol
13,TTCGACACGTGTTATT,-0.08 kcal/mol
14,GCTGGCACGTGGATTG,0.05 kcal/mol
15,TAGGGCACGTGGGCCG,-0.26 kcal/mol
16,TAATTCACGTGATAGA,0.12 kcal/mol
17,TGATTCACGTGGTCGT,0.22 kcal/mol
18,GGTTGCACGTGGTTTG,0.06 kcal/mol
19,CGATACACGTGTGTGG,0.08 kcal/mol
20,GTTAGCACGTGGGGTG,-0.17 kcal/mol
21,AAATTCACGTGTGTAA,0.29 kcal/mol
22,AGTTGCACGTGACTGG,-0.01 kcal/mol
23,TGGAGCACGTGTAGGG,-0.04 kcal/mol
24,TTCTGCACGTGTAAAG,0.2 kcal/mol
25,TAAAACACGTGGTTTA,-0.08 kcal/mol
26,TGTCACACGTGTTGTG,0.05 kcal/mol

row,Sequence,relative binding free energy
1,GTGTGCACGTGCGAAT,-0.14 kcal/mol
2,AAGTTCACGTGTTATT,0.29 kcal/mol
3,GAGGACACGTGTTTAG,0.07 kcal/mol
4,GCGTGCACGTGAGTAG,0.36 kcal/mol
5,CTTGTCACGTGTGGGC,0.17 kcal/mol
6,CGTGGCACGTGGCAAG,-0.21 kcal/mol
7,ATTAGCACGTGCGTAG,-0.12 kcal/mol
8,GTGCTCACGTGAAGGG,0.41 kcal/mol
9,ATATTCACGTGGAAAG,0.19 kcal/mol
10,AACGTCACGTGTGTAG,0.05 kcal/mol
11,TAGATCACGTGATTGT,0.27 kcal/mol
12,TTCATCACGTGTTTAG,0.15 kcal/mol
13,TTTATCACGTGACTGG,0.32 kcal/mol
14,TATATCACGTGGTCGT,0 kcal/mol
15,GGAGCCACGTGTAGGG,-0.07 kcal/mol
16,TGTTGCACGTGGAGTG,0.1 kcal/mol
17,TTCTGCACGTGTGGCT,0.15 kcal/mol
18,TAATGCACGTGACGGG,0.17 kcal/mol
19,ATGGGCACGTGAAGCG,0.16 kcal/mol
20,GATGCCACGTGGGGTA,-0.2 kcal/mol
21,GTTAGCACGTGTTTTG,0.11 kcal/mol
22,TTGAGCACGTGTACTT,-0.01 kcal/mol
23,GGTTTCACGTGTCATA,0.23 kcal/mol
24,TATGTCACGTGTAGAA,0.13 kcal/mol
25,TTGTCCACGTGATATG,0.12 kcal/mol
26,GGTTGCACGTGATATT,0.08 kcal/mol

row,Sequence,relative binding free energy
1,CACGTCACGTGGTGGT,-0.01 kcal/mol
2,GGTGACACGTGGTGTG,-0.04 kcal/mol
3,TACGACACGTGTTGTA,0.09 kcal/mol
4,AGCAGCACGTGGGTGG,-0.16 kcal/mol
5,CTTGACACGTGAGTGG,0.17 kcal/mol
6,ATAAACACGTGGTGGC,-0.04 kcal/mol
7,TTTCCCACGTGTGTAT,0.12 kcal/mol
8,ATGTTCACGTGCGGGT,0.26 kcal/mol
9,TTCTACACGTGTTTGA,0.06 kcal/mol
10,TGCTCCACGTGTGTTG,-0.05 kcal/mol
11,ATGTACACGTGTTGTC,0.01 kcal/mol
12,GATTTCACGTGGGTCT,0.17 kcal/mol
13,GTAGGCACGTGGTTTT,-0.01 kcal/mol
14,AGGATCACGTGGGTCA,0 kcal/mol
15,TGGCGCACGTGAGTTG,0.16 kcal/mol
16,AATTTCACGTGATTGC,0.31 kcal/mol
17,TGTTACACGTGTCGAG,0.14 kcal/mol
18,GTTTTCACGTGCGAGG,0.39 kcal/mol
19,GTGTACACGTGGAGAG,0.05 kcal/mol
20,TTAGACACGTGGAGTC,0.02 kcal/mol
21,TGAAGCACGTGTTGAT,-0.07 kcal/mol
22,GAGCGCACGTGGGCGG,-0.2 kcal/mol
23,TGGATCACGTGAAATA,0.57 kcal/mol
24,TGTGACACGTGCTAGA,-0.07 kcal/mol
25,TAGATCACGTGTCTGT,0.13 kcal/mol
26,TAGTGCACGTGTTCGG,-0.06 kcal/mol

row,Sequence,relative binding free energy
1,CGTTTCACGTGTGCTA,0.25 kcal/mol
2,TGTTGCACGTGCACGT,-0.17 kcal/mol
3,TAGGTCACGTGGACGA,0.22 kcal/mol
4,GATGACACGTGAGTTA,0.29 kcal/mol
5,TGGGCCACGTGGCATG,-0.12 kcal/mol
6,TGTTGCACGTGTAGAC,0.05 kcal/mol
7,GCGATCACGTGGTTGT,0.11 kcal/mol
8,GAAGTCACGTGTATTA,0.07 kcal/mol
9,TGACTCACGTGGGGGC,0.06 kcal/mol
10,TATTTCACGTGTAGTG,0.29 kcal/mol
11,TGGTACACGTGACGTT,0.2 kcal/mol
12,GTGGGCACGTGTCTTG,-0.02 kcal/mol
13,CTTTACACGTGCGGGT,0.1 kcal/mol
14,TATTACACGTGATTGC,0.29 kcal/mol
15,TGATACACGTGGGATT,-0.02 kcal/mol
16,TTCGACACGTGGTGGA,0.03 kcal/mol
17,AGATCCACGTGAGGGG,0.17 kcal/mol
18,GGGTGCACGTGCAGGG,0.04 kcal/mol
19,TAAGTCACGTGGTTGT,0.05 kcal/mol
20,TGGGCCACGTGAGTAT,0.18 kcal/mol
21,CTTGGCACGTGTGATG,-0.01 kcal/mol
22,ATATTCACGTGAGGGT,0.16 kcal/mol
23,TATGTCACGTGTACGG,0.07 kcal/mol
24,GTAATCACGTGGATAG,0.31 kcal/mol
25,TTGTTCACGTGATAGA,0.35 kcal/mol
26,GGGCGCACGTGCATGG,-0.11 kcal/mol

row,Sequence,relative binding free energy
1,GTGGCCACGTGTCTGT,-0.01 kcal/mol
2,GGGAGCACGTGTTGAT,-0.27 kcal/mol
3,GTCTTCACGTGAGTGG,0.55 kcal/mol
4,AGGAGCACGTGTCTGG,-0.18 kcal/mol
5,TTTGACACGTGTTATA,0.06 kcal/mol
6,GAGGTCACGTGTAGAT,0.23 kcal/mol
7,TGTTTCACGTGGCAGT,0.37 kcal/mol
8,AGTTTCACGTGACGAG,0.41 kcal/mol
9,CTTAGCACGTGGTGAA,-0.19 kcal/mol
10,TGTGCCACGTGTAGTG,-0.18 kcal/mol
11,CTAATCACGTGGGTTG,-0.02 kcal/mol
12,TGATACACGTGGAGGT,0.2 kcal/mol
13,GATTACACGTGTAGTT,0.31 kcal/mol
14,AAGTGCACGTGGCGTA,-0.1 kcal/mol
15,TAGGACACGTGTGGTC,0.09 kcal/mol
16,AGTGGCACGTGTAGTC,-0.04 kcal/mol
17,TTAAGCACGTGTCTAG,-0.06 kcal/mol
18,ACAGGCACGTGGGTAG,-0.36 kcal/mol
19,GTGTACACGTGTGGAG,0.06 kcal/mol
20,ACGGGCACGTGTGGAT,0.05 kcal/mol
21,GTTCGCACGTGTAGTA,0.1 kcal/mol
22,ATTATCACGTGTTATG,0.07 kcal/mol
